± gives the standard deviation of the averaged measurements. This is one part of the list.
tested on: PfAP2-EXP AP2 domain (GST-tagged); experiment: gcPBM binding intensity (ln(normalized median fluorescence intensity)); higher = stronger DNA binding
How it was run: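 For binding intensity, the highest Masliner-normalised natural-log median intensity across replicate spots of either probe orientation was taken. Protein bound to the array was stained with Alexa488 anti-GST antibody and scanned at 488 nm. The protein, GST-tagged P. falciparum DNA-binding domains from E. coli at about 25 μg on average, had been applied for 1 h to an Agilent 4 × 180k array of primer-extended double-stranded 36-bp intergenic genomic probes and negative controls.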

Question: How did the “gcPBM binding intensity (ln)” value turn out when “AACATTTTAAAATAATGTACTTGAAAAAAAAACTAC [XGTACX_site8894]” was run?
Answer: The value was 8.73 ± 0.49.

Question: “TGTTCTAATATTTGTTGTACGTTTACGTTTCTCTCT [XGTACX_site18]” was tested. Which “gcPBM binding intensity (ln)” value did it give?
Answer: The value was 8.88 ± 0.45.

Question: Which “gcPBM binding intensity (ln)” value does the source give for “CATATAAATAAATATACATGCATACATACATATATA [TGCATGCA_site713]” here?
Answer: Its value is 8.51 ± 0.23.

Question: For “TATTTAAGAGTATGAACACACATCATACCCATATAA [CACACA_site5911]”, which “gcPBM binding intensity (ln)” value is on record?
Answer: The value was 8.31 ± 0.47.

Question: With “ATTTAACCAAATAATATATTTAAAAAATAGTCACAT [CACACA_negctrl_site274]” as the sequence, how does the “gcPBM binding intensity (ln)” value read?
Answer: The value was 8.36 ± 0.39.

Question: How did the “gcPBM binding intensity (ln)” value turn out when “TTAATTTATGTTAATGGTACGTAAATGCATTTATTT [XGTACX_site3002]” was run?
Answer: The value was 8.51 ± 0.31.

Question: With “TATAATATATGAAAAAGTACAAATATTTCGATGGTC [XGTACX_site129]” as the sequence, how does the “gcPBM binding intensity (ln)” value read?
Answer: The value was 8.66 ± 0.32.

Question: How did the “gcPBM binding intensity (ln)” value turn out when “TTTTATAATTTGAGAACATGCAACATAAATATAAAG [TGCATGCA_site965]” was run?
Answer: Its value is 9.05 ± 0.41.

Question: For “TTTATTAAATATATATGTACATATCAAAATGTATAA [XGTACX_site3181]”, which “gcPBM binding intensity (ln)” value is on record?
Answer: The value was 8.47 ± 0.35.

Question: “TTTTTTTTCTATTGAGCACACATATCACGATTAGTA [CACACA_site7992]” was tested. Which “gcPBM binding intensity (ln)” value did it give?
Answer: The value was 8.56 ± 0.35.

Question: For “GTTAAACATCTTCTGTGATATGTTAGAATATTATTT [CACACA_negctrl_site687]”, which “gcPBM binding intensity (ln)” value is on record?
Answer: Its value is 8.35 ± 0.31.

Question: With “TATTTCACAAACCTTACATGCGGTTTATTTATATAT [TGCATGCA_site123]” as the sequence, how does the “gcPBM binding intensity (ln)” value read?
Answer: The value was 8.94 ± 0.47.

Question: For “ATAATTTATATCATTACACACATTTTTTATATTTTT [CACACA_site3450]”, which “gcPBM binding intensity (ln)” value is on record?
Answer: The value was 8.6 ± 0.36.

Question: Which “gcPBM binding intensity (ln)” value does the source give for “TTTTTGAATGTTTGCACACAAATCTCATAATTTTAG [CACACA_site357]” here?
Answer: Its value is 8.38 ± 0.16.

Question: “TAGTTACATAAAATATGTACGTATAATTTTTTTATT [XGTACX_site3847]” was tested. Which “gcPBM binding intensity (ln)” value did it give?
Answer: The value was 8.29 ± 0.16.

Question: With “ATATTTTCAGTTCTCCATTATGTTCCCATTATTTTT [CACACA_negctrl_site990]” as the sequence, how does the “gcPBM binding intensity (ln)” value read?
Answer: Its value is 9.12 ± 0.46.

Question: How did the “gcPBM binding intensity (ln)” value turn out when CATGAATATTTTAATGTGCACATTTATCATTATATG was run?
Answer: Its value is 8.84 ± 0.42.

Question: How did the “gcPBM binding intensity (ln)” value turn out when “CCAAACTAAATGTACACACATACATAAATATAAATA [CACACA_site1141]” was run?
Answer: Its value is 8.71 ± 0.57.

Question: For “ATGTAATAAATATACACACACAAATATATATATATA [CACACA_site2395]”, which “gcPBM binding intensity (ln)” value is on record?
Answer: The value was 10 ± 0.42.

Question: How did the “gcPBM binding intensity (ln)” value turn out when “ACCTATGTATATTATACACACTCCAAACTATTCTTT [CACACA_site6939]” was run?
Answer: Its value is 8.89 ± 0.43.

Question: How did the “gcPBM binding intensity (ln)” value turn out when “ATATTATATAACTTTTGTACGAACTATTTTATATAT [XGTACX_site6]” was run?
Answer: Its value is 8.7 ± 0.54.

Question: How did the “gcPBM binding intensity (ln)” value turn out when “AAAAAAAAATATATATGTACATATGTATAATAAAAA [XGTACX_site2110]” was run?
Answer: Its value is 8.63 ± 0.39.

Question: How did the “gcPBM binding intensity (ln)” value turn out when “TTTAGAGAAGTCAAGTGTACATATAAAATAATTCAC [XGTACX_site4997]” was run?
Answer: The value was 8.55 ± 0.3.

Question: “ATAAAAATAAATAAATTATATAAATGTAATATGAAA [GTGCAC_negctrl_site663]” was tested. Which “gcPBM binding intensity (ln)” value did it give?
Answer: Its value is 8.44 ± 0.37.

Question: For “TATTTATTTATATATGCATGCTAATAATTATAACAT [TGCATGCA_site988]”, which “gcPBM binding intensity (ln)” value is on record?
Answer: Its value is 9.29 ± 0.6.

Question: How did the “gcPBM binding intensity (ln)” value turn out when “AATGAAGACTTTTTTACACACTTCATATATTATATA [CACACA_site2034]” was run?
Answer: The value was 8.81 ± 0.36.

Question: How did the “gcPBM binding intensity (ln)” value turn out when “GTATAATTGGAAATTACACACCTTATAATGTAACAT [CACACA_site6091]” was run?
Answer: Its value is 8.38 ± 0.33.

Question: How did the “gcPBM binding intensity (ln)” value turn out when “AATGATTTTAAAAAATGTACTTTATAAACAAAATTA [XGTACX_site3803]” was run?
Answer: The value was 8.27 ± 0.32.

Question: For “TAAATTAGAATAAATACACACAAATTAGAATTCTAT [CACACA_site7781]”, which “gcPBM binding intensity (ln)” value is on record?
Answer: The value was 8.61 ± 0.72.

Question: With “TTTTTTTTTGTTAGTTGTACGTTAAATGAATTTACT [XGTACX_site7675]” as the sequence, how does the “gcPBM binding intensity (ln)” value read?
Answer: The value was 8.71 ± 0.32.

Question: With “TAAAGTGTCAAATTCACACACATATATATATATATA [CACACA_site1380]” as the sequence, how does the “gcPBM binding intensity (ln)” value read?
Answer: Its value is 10.1 ± 0.57.

Question: “TAAAAAAGTTATATTACACACTTTATTGGTTAACTT [CACACA_site653]” was tested. Which “gcPBM binding intensity (ln)” value did it give?
Answer: The value was 8.17 ± 0.45.

Question: For “ACATATAAATTATATACACACAATAATATATATATA [CACACA_site1384]”, which “gcPBM binding intensity (ln)” value is on record?
Answer: Its value is 9.47 ± 0.36.

Question: “TATTTATAAAAAAAATGTACATTTATGTATAAGCTA [XGTACX_site3266]” was tested. Which “gcPBM binding intensity (ln)” value did it give?
Answer: Its value is 8.62 ± 0.47.

Question: For “ATAATGTTTCTTTCAACACACAAAAAATGAACCCAT [CACACA_site4947]”, which “gcPBM binding intensity (ln)” value is on record?
Answer: The value was 8.85 ± 0.49.

Question: Which “gcPBM binding intensity (ln)” value does the source give for “AATATCAATATTATATGTACTTATAATTTCAATGTA [XGTACX_site2423]” here?
Answer: Its value is 8.44 ± 0.28.

Question: Which “gcPBM binding intensity (ln)” value does the source give for “TAAATTTATTAATCAAGTACAAAATAAATTTTTATA [XGTACX_site2745]” here?
Answer: Its value is 8.1 ± 0.41.

Question: For “TATATATAGAAACACACACACACATATATATATATA [CACACA_site4116]”, which “gcPBM binding intensity (ln)” value is on record?
Answer: The value was 10.1 ± 0.39.

Question: Which “gcPBM binding intensity (ln)” value does the source give for “AAAATTTAATATAATGCACACATAAAAAAAAAATCA [CACACA_site7882]” here?
Answer: The value was 8.725 ± 0.035.

Question: With “ATCATGTTATATATATGTACTAATAATATAATATAA [XGTACX_site1326]” as the sequence, how does the “gcPBM binding intensity (ln)” value read?
Answer: Its value is 8.29 ± 0.34.

Question: Which “gcPBM binding intensity (ln)” value does the source give for “AGTCGAATGATGTACACACATACAAAACATTTATGC [CACACA_site4022]” here?
Answer: The value was 8.91 ± 0.71.

Question: How did the “gcPBM binding intensity (ln)” value turn out when “AGTTTATATTATTAAAGTACATATATATATTCTTAA [XGTACX_site3164]” was run?
Answer: The value was 8.39 ± 0.33.

Question: How did the “gcPBM binding intensity (ln)” value turn out when “TACTAACTTTTTAAAAGTACAGAACCATAACCATAA [XGTACX_site7182]” was run?
Answer: The value was 8.85 ± 0.39.

Question: With “GAATAATCTAGAAACACACAAACACGACAAAAGAAA [CACACA_site4135]” as the sequence, how does the “gcPBM binding intensity (ln)” value read?
Answer: The value was 8.93 ± 0.55.

Question: With “ATATATATATATATATGGTAAAGTAAAAGGAAATAC [XGTACX_negctrl_site45]” as the sequence, how does the “gcPBM binding intensity (ln)” value read?
Answer: Its value is 10.3 ± 0.3.

Question: With “TATATATTATAAAAGAGTACAGAAAGAAAAAAAAAT [XGTACX_site8305]” as the sequence, how does the “gcPBM binding intensity (ln)” value read?
Answer: Its value is 9.12 ± 0.59.

Question: With “AAACTTTTTTTAAAAACACACATATATATTTATATA [CACACA_site4092]” as the sequence, how does the “gcPBM binding intensity (ln)” value read?
Answer: Its value is 8.36 ± 0.41.

Question: Which “gcPBM binding intensity (ln)” value does the source give for “ATATTCAATATATTATGTACACATATATGAGGATAT [XGTACX_site7019]” here?
Answer: The value was 8.65 ± 0.41.

Question: With “AGTATATTAATATAATGTACAAACGTTTATTTTGTA [XGTACX_site5980]” as the sequence, how does the “gcPBM binding intensity (ln)” value read?
Answer: The value was 8.59 ± 0.42.

Question: For “GTTTAAAATCTTTGCACACATATAAATAAATATATT [CACACA_site2555]”, which “gcPBM binding intensity (ln)” value is on record?
Answer: The value was 8.63 ± 0.15.

Question: “AAATATCTACATATTTGTACATATTTATACATATTT [XGTACX_site6300]” was tested. Which “gcPBM binding intensity (ln)” value did it give?
Answer: Its value is 8.23 ± 0.3.

Question: How did the “gcPBM binding intensity (ln)” value turn out when “GAAAAGTAGACAATATGTACATATAGTATTTATAAA [XGTACX_site878]” was run?
Answer: Its value is 8.6 ± 0.42.

Question: With “AGCAACCCCCTAGCTACACACATATAGATATAAATA [CACACA_site6577]” as the sequence, how does the “gcPBM binding intensity (ln)” value read?
Answer: Its value is 9.63 ± 0.36.

Question: “ACTGTCATTTATTGTAGTACGTCAATTTATTACATT [XGTACX_site2749]” was tested. Which “gcPBM binding intensity (ln)” value did it give?
Answer: Its value is 8.87 ± 0.29.

Question: “TGTTACAAAAAATAATGTACTTAATATATATATATA [XGTACX_site1016]” was tested. Which “gcPBM binding intensity (ln)” value did it give?
Answer: Its value is 9.74 ± 0.33.

Question: “TATCTTCATTTTTTTGGTACGCACGCAAATATGGCT [XGTACX_site3107]” was tested. Which “gcPBM binding intensity (ln)” value did it give?
Answer: Its value is 8.79 ± 0.52.

Question: How did the “gcPBM binding intensity (ln)” value turn out when “TAAATACATTTATGTACACACACATAGATGTATATT [CACACA_site5618]” was run?
Answer: The value was 8.34 ± 0.22.

Source: the supplement of paper PMC11417369
